# The whole screen tested about 310,000 compounds, of which about 2,200 (0.71%) showed an effect of 50% or more. Effects have a minus sign here. The list shows a part of the results.
# Target: human ether-à-go-go-related gene (hERG) potassium channel (human, UniProt Q12809)
# Assay: primary screen, population patch clamp on CHO cells stably expressing hERG
# human ether-à-go-go-related gene (hERG) potassium channel, sequence (Q12809 whole entry, looked up): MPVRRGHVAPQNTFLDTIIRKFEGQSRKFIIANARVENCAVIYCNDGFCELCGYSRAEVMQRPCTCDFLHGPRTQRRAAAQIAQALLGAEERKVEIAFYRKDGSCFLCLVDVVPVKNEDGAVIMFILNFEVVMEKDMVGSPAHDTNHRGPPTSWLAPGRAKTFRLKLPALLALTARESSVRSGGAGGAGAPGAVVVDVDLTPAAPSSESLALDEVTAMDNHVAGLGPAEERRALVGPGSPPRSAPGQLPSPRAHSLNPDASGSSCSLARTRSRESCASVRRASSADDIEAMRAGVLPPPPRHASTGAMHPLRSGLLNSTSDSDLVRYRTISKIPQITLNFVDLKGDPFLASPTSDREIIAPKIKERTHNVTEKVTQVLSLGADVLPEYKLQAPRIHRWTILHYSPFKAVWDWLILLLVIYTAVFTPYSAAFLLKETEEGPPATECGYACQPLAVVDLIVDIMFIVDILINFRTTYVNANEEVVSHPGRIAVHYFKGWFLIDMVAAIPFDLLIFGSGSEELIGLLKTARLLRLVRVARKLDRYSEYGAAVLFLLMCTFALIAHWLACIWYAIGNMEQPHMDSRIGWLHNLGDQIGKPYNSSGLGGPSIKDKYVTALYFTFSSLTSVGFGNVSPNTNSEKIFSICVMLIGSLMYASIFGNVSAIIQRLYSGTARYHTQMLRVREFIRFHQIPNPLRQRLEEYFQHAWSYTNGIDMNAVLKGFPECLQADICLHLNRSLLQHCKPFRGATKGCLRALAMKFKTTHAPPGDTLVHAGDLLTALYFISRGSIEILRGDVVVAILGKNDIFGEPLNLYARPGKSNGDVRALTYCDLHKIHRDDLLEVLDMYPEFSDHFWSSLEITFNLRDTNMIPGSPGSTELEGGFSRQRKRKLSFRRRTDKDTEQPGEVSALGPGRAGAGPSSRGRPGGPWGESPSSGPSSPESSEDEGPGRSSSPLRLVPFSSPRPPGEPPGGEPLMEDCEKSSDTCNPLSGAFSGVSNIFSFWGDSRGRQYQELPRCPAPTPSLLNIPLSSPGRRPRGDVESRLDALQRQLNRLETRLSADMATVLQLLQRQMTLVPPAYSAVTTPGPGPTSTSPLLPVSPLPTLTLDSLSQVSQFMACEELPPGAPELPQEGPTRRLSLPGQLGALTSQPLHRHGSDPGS
row,Compound,"hERG current change (%, negative = inhibition) at 1uM [%]"
1,CC(C)CC(=O)NC(=S)NNC(=O)c1ccc(NC(=O)C2CCCCC2)cc1,10.3
2,CCN(CC(=O)Nc1cc(Cl)ccc1C)C(=O)Cn1c(=O)cnc2ccccc21,-1.19
3,CS(=O)(=O)N1CCN(c2ccc(NC(=O)COc3ccccc3)cc2)CC1,-5.24
4,CN1CCN(c2ccc(NC(=O)c3cccc(OCc4ccccc4)c3)cc2)CC1,8.13
5,O=C(Nc1ccccc1Cl)c1cc(S(=O)(=O)N2CCCC(C(=O)O)C2)ccc1F (stereo not shown),-2.71
6,CN(C)C(=O)C(=O)c1cccn1-c1ccccc1C#N,-2.28
7,COc1cc(C2C(C#N)=C(N)Oc3cc(O)ccc32)cc(OC)c1OC (stereo not shown),-0.47
8,O=C(CN1C(=O)C2C3C=CC(C3)C2C1=O)Nc1nc(-c2ccccn2)cs1 (stereo not shown),4.94
9,CC(C)c1[nH]nc2c1C(c1cccnc1)C(C#N)=C(N)O2 (stereo not shown),2.83
10,CC(C)CC(=O)Nc1nc2c(c(=O)[nH]1)CCCC2,9.13
11,COc1ccc(CCNC(=O)C2CCN(S(C)(=O)=O)CC2)cc1,-7.11
12,CCCn1c(SCCc2ccccc2)nc2c1c(=O)[nH]c(=O)n2C,9.8
13,O=C(NCCN1CCCCC1)Nc1ccccc1Cl,15.3
14,CC(=O)c1ccc(OCC(=O)N2CCCC(N(C)Cc3ccccc3)C2)cc1 (stereo not shown),-1.38
15,CCOCCCn1c(SCC(=O)Nc2ccc3[nH]c(=O)[nH]c3c2)nc2ccccc2c1=O,14.5
16,COc1ccccc1C(=O)Nc1cccc2cccnc12,9.04
17,CCOc1ccccc1NC(=O)CSc1nnc(CNC(=O)c2c(F)cccc2Cl)o1,11.3
18,O=C1CC(c2ccccc2F)C2=C(COC2=O)N1 (stereo not shown),14.5
19,Cc1noc(C)c1CC(=O)N1CCCC(N2CCN(c3ccccc3F)CC2)C1 (stereo not shown),17.3
20,FC(F)(F)c1cc(-c2ccccc2)nc(NCc2cccnc2)n1,1.08
21,COc1cc(/C=C/C(=O)OCC(=O)N2CCc3ccccc3C2)ccc1O,2.33
22,CCN(CC)C(=O)CN1C(=O)c2cccc3cccc(c23)C1=O,11.6

row,Compound,"hERG current change (%, negative = inhibition) at 1uM [%]"
1,O=C(CCNC(=O)c1ccccc1Cl)Nc1ccc2c(c1)OCO2,12.9
2,CC1CC(=O)N(c2ccc(N(C)Cc3ccccc3)c([N+](=O)[O-])c2)C1=O (stereo not shown),5.16
3,Cc1ccc(SCc2nc3ccccc3n2CC(=O)Nc2ccc(Cl)cc2)cc1,6.08
4,c1ccc(CSc2nnnn2-c2ccc3c(c2)OCCO3)nc1,11.4
5,CCOc1ccc(NC(=O)C2C3CCC4C(CCC32)C4(Cl)Cl)cc1 (stereo not shown),12.7
6,CC1=CC(C)C(/C=N/n2cnnc2)C(C)C1 (stereo not shown),-4.48
7,CC1CCCN(c2ccc([N+](=O)[O-])cc2C(=O)c2ccccc2)C1 (stereo not shown),3.39
8,CCOC(=O)N1CCC(NC(=O)c2cc(C(=O)NC3CCCC3)ccc2CO)CC1,14.6
9,FC(F)(F)c1ccnc(N2CCN(Cc3cnc(-c4ccccc4)[nH]3)CC2)c1,3.11
10,O=c1c2ccccc2nc(N2CCCC2)n1-c1ccc(Cl)cc1,1.69
11,COc1ccc(OCC(=O)Nc2ccc(NC(=O)c3ccccc3Cl)c(OC)c2)cc1,-7.84
12,CN(C1CCCCC1)S(=O)(=O)c1ccc(C(=O)O)cc1,0.593
13,Cc1cc(NC(=O)c2ccc3c(c2)OCCO3)ccc1NC(=O)c1cc2ccccc2o1,9.88
14,Cc1noc(C)c1COC(=O)[C@H](C)NS(=O)(=O)c1ccc(Cl)c(Cl)c1,2.96
15,Cc1ccc(C(=O)/C=C/Nc2ccccc2C(N)=O)cc1,19.7
16,O=C(NN=C1CCCC1)C(=O)Nc1cccc(C(F)(F)F)c1,7.53
17,CC(C)c1noc2ncc(C(=O)c3cc(Cl)cc(Cl)c3O)cc12,19.3
18,CC1CCCC(C)N1/N=C/c1ccc(O)cc1 (stereo not shown),8.15
19,COC(=O)C1=C(c2ccc(OC(F)(F)F)cc2)C[C@@H]2CC[C@H]1N2C(=O)NCc1cccc2ccccc12,14.1
20,COc1ccc(N(Cc2ccccc2)N=O)cc1,7.99
21,CSCC[C@H](NC(=O)c1ccco1)c1nnc2ccccn12,13
22,COc1ccc(C(=O)NCC(=O)c2ccccc2)cc1,13.4

row,Compound,"hERG current change (%, negative = inhibition) at 1uM [%]"
1,CCC1CCCCN1S(=O)(=O)c1ccc(NC(=O)C2CCCO2)cc1 (stereo not shown),13.2
2,CCN(C(=O)CSc1nnc(-c2ccccc2Br)o1)C1CCS(=O)(=O)C1 (stereo not shown),3.66
3,Cc1ccsc1C(=O)N(C)C1CCS(=O)(=O)C1 (stereo not shown),9.2
4,Cc1ccc(-c2nnc(SCC(=O)N/N=C/c3ccc(C(=O)O)cc3)n2C2CCCCC2)cc1,16
5,C/C(=N\OCc1nc2ccccc2c(=O)n1/N=C/c1cc([N+](=O)[O-])ccc1O)c1ccccc1,12.1
6,CCCc1nnc(NC(=O)CC(C)c2ccccc2)s1 (stereo not shown),12.6
7,Cc1nc(-c2ccncc2)nc(NCCNc2ncccc2C(F)(F)F)c1Cl,10.2
8,Cc1cc(N2C(=O)C(O)=C(C(=O)c3cccs3)C2c2ccccc2)no1 (stereo not shown),-8.24
9,CN(C(=O)Cn1c(=O)oc2cc(S(=O)(=O)N3CCCC3)ccc21)C1CCCCC1,36
10,COc1cc(/C=C2\SC(=O)NC2=O)ccc1OCc1ccc(Cl)nc1,18.7
11,CCOC(=O)c1nc(N)c(=O)n(-c2ccc(C)cc2)n1,15.7
12,CN(C)S(=O)(=O)c1ccc(NC(=O)c2c(F)cccc2Cl)cc1,14.3
13,CCN(CC)C(=O)CSc1ncnc2c(-c3cccs3)nsc12,12.4
14,CS(=O)(=O)N1CCCC(C(=O)Nc2ccc(F)c(F)c2)C1 (stereo not shown),12.5
15,Cc1ccc(C(=O)N/C(=C\c2ccccc2)C(=O)NCc2ccncc2)cc1,-77.1
16,COc1cc(S(=O)(=O)Nc2cc(C)cc(C)c2)ccc1F,12.9
17,Cc1ccc(C)c2[nH]c(=O)c(CN(CCN3CCOCC3)Cc3nnnn3CC3CCCO3)cc12 (stereo not shown),8.29
18,O=c1oc(Nc2cccc(F)c2)nc2ccccc12,7.95
19,CCn1c(CNC(=O)COc2ccc(C(C)C)cc2)nnc1SCC(=O)Nc1ccccc1C(C)C,-12.8
20,CCOc1ccc(C(=O)Nc2ccc(S(=O)(=O)Nc3nccc(C)n3)cc2)cc1OCC,-5.8
21,CC(C)CCN1CCN(CC(c2ccccc2)c2ccccc2)CC1CCO (stereo not shown),-81.9
22,O=C(NCc1cccnc1)C(=O)NCC1OCCCN1S(=O)(=O)c1ccccc1 (stereo not shown),20.4

row,Compound,"hERG current change (%, negative = inhibition) at 1uM [%]"
1,O=c1sc(Nc2ccccc2)nc2ccsc12,7.66
2,COc1ccc(-n2c(C)cc(C(=O)COc3ccc(C)nc3[N+](=O)[O-])c2C)cc1,1.53
3,Cc1cccnc1-n1c(CCN2C(=O)c3ccccc3C2=O)nc2ccccc2c1=O,9.68
4,O=C1c2ccccc2C(=O)N1c1cccnc1,1.09
5,COC(=O)c1ccc(NC(=S)N2CCN(C(=O)c3ccco3)CC2)cc1,0.451
6,COc1cccc(CN(C)C(=O)c2sccc2-c2ccccc2)c1OC,12.5
7,O=C(COc1ccccc1)Nc1c2c(nn1-c1ccccc1)CS(=O)C2 (stereo not shown),5.72
8,CC(=O)c1cc2c(cc1NC(=O)c1ccco1)OCCO2,11.2
9,COc1ccc(C2=NO[C@@H]3[C@@H]4C[C@@H]([C@H]5C(=O)N(C)C(=O)[C@@H]45)[C@H]23)cc1,2.03
10,Cc1cc(NC(=O)CSc2nc(C3CC3)nc3sc4c(c23)CCC(C)C4)no1 (stereo not shown),17.1
11,CN1CCN(CCCNC(=O)c2ccc(/C=C3\Oc4ccccc4N(Cc4ccccc4F)C3=O)cc2)CC1,10.7
12,O=C1NC(=O)/C(=C/c2ccco2)N1,10
13,Fc1cccc2sc(Nc3nc4c(F)cccc4s3)nc12,3.7
14,COC(=O)c1ccc(OCc2nn[nH]n2)cc1,12.5
15,Cc1ccc(S(=O)(=O)N2CCC(C(=O)N3CCC4(CC3)OCCO4)CC2)cc1,6.92
16,COc1ccc(CCN(Cc2ccccn2)C(=S)Nc2ccccc2F)cc1OC,0.501
17,COc1ccc(-c2noc(CN3CCN(c4ccccc4F)CC3)n2)cc1OC,12.8
18,C=CCN(CC=C)C(=O)CN1C(=O)c2ccccc2C1=O,12.3
19,COc1ccc(N2CCN(C(=O)COc3ccc4c(C)c(C)c(=O)oc4c3C)CC2)cc1,12.2
20,O=c1oc2ccccc2c(Nc2ccc3ncccc3c2)c1[N+](=O)[O-],1.67
21,CN(C)C=Nc1ncc2c([nH]c3ccccc32)c1C#N,7.87
22,Cc1cc(C)c(C#N)c(SCc2ccc(C#N)cc2)n1,7.48

# Source: PMC4336329 (PLoS ONE, 2015)
